# Laboratory results reported in PubChem BioAssay AID1030 (National Center for Advancing Translational Sciences (NCATS), 2008).
# The campaign covered roughly 220,000 compounds. About 16,000 (7.3%) were called active. This list was built around the results that the source calls inconclusive (neither active nor inactive); the mix of calls is not that of the screen. Calls come from the whole dose curve; as a rule, active = well fitted inhibition curve with a large enough effect (not every such curve was filed as active); inconclusive = small, poorly fitted or top-dose-only effect, or another doubt; inactive = no such curve, though single readings can be large or run the other way. Potencies of inconclusive entries are left out as doubtful fits.
# Molecular target: Aldehyde dehydrogenase 1A1 (Homo sapiens) (UniProt P00352)
# Sequence of UniProt P00352 (P00352 whole entry, looked up): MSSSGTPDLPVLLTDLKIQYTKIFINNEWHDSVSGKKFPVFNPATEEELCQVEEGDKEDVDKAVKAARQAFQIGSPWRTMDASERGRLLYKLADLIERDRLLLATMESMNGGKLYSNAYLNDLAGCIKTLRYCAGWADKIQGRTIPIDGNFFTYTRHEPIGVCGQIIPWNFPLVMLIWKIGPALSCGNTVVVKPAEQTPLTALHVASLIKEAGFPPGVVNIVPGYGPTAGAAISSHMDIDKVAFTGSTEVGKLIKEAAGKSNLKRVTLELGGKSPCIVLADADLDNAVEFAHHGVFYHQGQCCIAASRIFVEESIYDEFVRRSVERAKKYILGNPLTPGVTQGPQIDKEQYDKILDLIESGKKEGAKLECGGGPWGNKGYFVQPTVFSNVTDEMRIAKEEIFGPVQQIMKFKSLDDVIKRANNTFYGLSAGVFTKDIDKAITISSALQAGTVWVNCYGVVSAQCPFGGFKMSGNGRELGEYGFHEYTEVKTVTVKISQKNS
# Assay: qHTS Assay for Inhibitors of Aldehyde Dehydrogenase 1 (ALDH1A1);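 for activity, negative = inhibition: plate controls were no enzyme wells and a reference inhibitor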
# Settings: Purified ALDH1A1, NADH fluorescence, propionaldehyde substrate; series mostly up to 75.3 µM; activity, negative = inhibition: at the top concentration
# Potency is the fitted concentration of half-maximal effect; tags give direction and shape of the fitted curve.
Compound,Potency,"activity, negative = inhibition"
O=C(NN1CCOCC1)c1cc(-c2cccs2)nc2ccccc12,"inconclusive [inhibitor, partial curve]",
CSCSC1=C(C#N)C(c2ccc(Cl)cc2)C(C(C)=O)=C(C)N1 (centres undefined),active: 8.91 µM,
COc1ccc(Cn2c(=O)[nH]c3cc(C(=O)NCCCN4CCCC4=O)ccc3c2=O)cc1,,inactive: -13.2%
Cc1ccc(NC(=O)CCN2CCN(C/C=C/c3ccccc3)CC2)cc1C,active: 14.1 µM,
CCOC(=O)c1cnc2c([N+](=O)[O-])cnn2c1C,"inconclusive [inhibitor, single point]",
CCOC(=O)c1cc(C(=O)OCC)c(=O)[nH]c1C,"inconclusive [inhibitor, single point]",
COc1ccc(CNC(=O)COC(=O)c2ccco2)cc1,"inconclusive [inhibitor, single point]",
C/C(CC(=O)N(C(C)C)C(C)C)=N\NC(=O)c1ccccc1Br,,inactive: -4.44%
O=C1CCC/C(=N/NC(=O)c2ccc(CN3c4cccc5cccc(c45)S3(=O)=O)cc2)C1,"inconclusive [inhibitor, single point]",
COc1ccc2[nH]c3c(c2c1)CCn1c-3nc2sc(C(=O)Nc3ccccc3)c(C)c2c1=O,,inactive: 11.8%
Cc1ccc(NC(=O)CSc2nc3ccccc3c3nc(CCc4c(C)n[nH]c4C)nn23)cc1F,"inconclusive [inhibitor, single point]",
CC1CCCCC1NC(=O)Cn1nc(-c2ccccc2)ccc1=O (centres undefined),"inconclusive [inhibitor, single point]",
O=C(O)C1CCN(C(=O)COc2ccc3c4c(c(=O)oc3c2)CCC4)CC1,"inconclusive [inhibitor, partial curve]",
O=C1C(=O)c2ccccc2C(O)=C1c1cccc([N+](=O)[O-])c1,"inconclusive [inhibitor, single point]",
COc1cc2cc(CN(CCO)S(=O)(=O)c3ccccc3Cl)c(=O)[nH]c2cc1OC,"inconclusive [inhibitor, partial curve]",
C/C(=N\O)C(=O)C(CN1CCCCC1)CN1CCCCC1,active: 1.58 µM,
COc1cc(NC(=O)c2c(Cl)cnn2C)c(OC)cc1Cl,"inconclusive [inhibitor, single point]",
O=c1c(/C=N/Nc2ccccc2)c(Sc2nnnn2-c2ccccc2)nc2ccccn12,,inactive: 2.1%
CC1CCN(C(=O)C2CCC(CNS(=O)(=O)c3cccc4cccnc34)CC2)CC1 (centres undefined),"inconclusive [inhibitor, single point]",
COC(=O)C(CC(=O)c1ccc(Cl)cc1)c1ccc(C(C)C)cc1 (centres undefined),,inactive: -6.88%
CCN(CC)S(=O)(=O)c1ccc(NC(=O)c2cccnc2Cl)c(NC(=O)c2cccnc2Cl)c1,active: 7.08 µM,
CN1C(=O)/C(=C\C=C2/CCCN2C)N(C)C1=S,,inactive: -1.49%

Compound,Potency,"activity, negative = inhibition"
CCOC(=O)c1c(NC(=O)C2c3ccccc3Oc3ccccc32)sc(C(=O)N(CC)CC)c1C,"inconclusive [inhibitor, partial curve]",
O=C(NCCCN1CCOCC1)c1cnn2c(-c3ccccc3)cc(-c3ccccc3)nc12,"inconclusive [inhibitor, single point]",
C=CCNC(=S)N/N=C/c1ccc(-c2ccc(OC)cc2)o1,"inconclusive [inhibitor, partial curve]",
CCc1ccc(-c2csc(NC(=O)C3=NN(c4ccccc4)C(=O)CC3)n2)cc1,,inactive: 0.21%
COc1ccc(CC(=O)NNc2ncnc3c2cnn3-c2ccccc2)cc1,"inconclusive [inhibitor, partial curve]",
Cc1cc(NC(=O)CCCC(=O)N(CC(=O)NC2CCCCC2)c2ccccc2)no1,"inconclusive [inhibitor, partial curve]",
C[C@@](N)(/C=C\c1ccccc1)C(=O)O,,inactive: 10.9% [at 13.5 µM]
Cn1c(=O)c2sccc2n2c(CCCC(=O)NCc3ccc4c(c3)OCO4)nnc12,,inactive: -7.05%
CC(C)(C)c1ccc(OCC(=O)NCCN2CCCC2)cc1,"inconclusive [inhibitor, single point]",
O=C(Cc1ccccc1)N/N=C/c1ccc(OC(=O)/C=C\c2ccco2)cc1,"inconclusive [inhibitor, single point]",
Cc1cc(C)c2c(-n3cccc3)c(C(=O)NNS(=O)(=O)c3ccccc3)sc2n1,active: 4.47 µM,
Cc1ccc(/C=c2\sc3nc(-c4cccs4)nn3c2=O)o1,"inconclusive [inhibitor, single point]",
Cc1cc(C)nc(SCc2nnc(SCC(=O)Nc3nc(-c4ccccc4)cs3)n2-c2ccccc2)n1,,inactive: -9.93%
c1ccc(-c2nc(-c3ccco3)cs2)nc1,"inconclusive [inhibitor, single point]",
N#Cc1c(/N=C/c2cccs2)sc2c1CCCCC2,"inconclusive [inhibitor, partial curve]",
CC/C=C\C/C=C\C/C=C\C/C=C\C/C=C\C/C=C\CCC(=O)NCCc1ccc(O)c(O)c1,,inactive: -7.38%
Cc1sc2nc(SCC(=O)N3CCN(CCO)CC3)n(-c3ccccc3)c(=O)c2c1C,"inconclusive [inhibitor, partial curve, poor fit]",
Cc1ccc(-c2csc(NC(=O)c3ccno3)n2)cc1,"inconclusive [inhibitor, single point]",
COC(=O)[C@@H]1CCCN1Cc1nc(Cc2ccccc2F)no1,"inconclusive [inhibitor, partial curve]",
COc1ccc(-c2csc(NC(=O)C3=NN(c4ccccc4)C(=O)CC3)n2)cc1,"inconclusive [inhibitor, single point]",
Cc1ccc(-c2cnn(-c3cccc([N+](=O)[O-])c3)c2N)cc1,"inconclusive [inhibitor, single point]",
Cc1noc(C)c1S(=O)(=O)Nc1ccc(C(=O)N2CCC(C)CC2)cc1,,inactive: 4.74%
